{
  "source": "PubChem BioAssay AID485364",
  "about": "(National Center for Advancing Translational Sciences (NCATS), 2010)",
  "note": "About 11,000 (3.1%) of roughly 360,000 compounds were called active. Inconclusive means that the source gave no clear call. Such entries were picked first, then a sample of the others. Calls come from the whole dose curve; as a rule, active = well fitted inhibition curve with a large enough effect; inconclusive = small, poorly fitted or top-dose-only effect; inactive = no such curve, though single readings can be large or run the other way. No potency is given beside an inconclusive call; the fits are too rough. Potency is the fitted concentration of half-maximal effect; tags give direction and shape of the fitted curve.",
  "data": [
    {"target": "Schistosoma mansoni thioredoxin glutathione reductase (TGR) (UniProt Q962Y6)", "assay": "qHTS Assay for the Inhibitors of Schistosoma Mansoni Peroxiredoxins; note: nearly all actives have a fitted effect of over 60% in size", "conditions": "purified TGR, DTNB reduction, TNB absorbance 405 nm; series mostly up to 114 µM", "summary_of_the_method": "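First, TGR (20 nM dispensed) and NADPH were mixed with compound. Second, a 15 min room-temperature incubation followed. Third, further NADPH and then DTNB were added to start the reaction. Finally, TNB absorbance was monitored kinetically.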", "values": [
      {"smiles": "CCN1CCN(Cc2cc(=O)oc3cc4c(cc23)CCC4)CC1", "Potency": "inconclusive [inhibitor, partial curve]"},
      {"smiles": "COC(=O)C1C(O)C(C)C(O)C(C)(O)/C=C\\C=C(/C)C(=O)Nc2c(C)c(OC(C)=O)c3c(c2O)C(=O)C(C)=C2OCOC(=C23)/C(C)=C/C(C)(O)C(O)C(C)C1O", "note": "(stereo not given)", "Potency": "inconclusive [inhibitor, full curve]"},
      {"smiles": "Oc1cc2c(cc1O)CN(C(=S)NCCc1ccc(Cl)cc1)CCC2", "Potency": "inconclusive [inhibitor, partial curve]"},
      {"smiles": "Cc1cccc2cc(C#N)c(SCC(=O)NCC3CCCO3)nc12", "note": "(stereo not given)", "Potency": "inconclusive [inhibitor, single point]"},
      {"smiles": "COc1ccc(C(=O)CSc2nccn2C)cc1", "Potency": "inactive"},
      {"smiles": "COc1ccc(C2/C(=C(\\O)c3ccc4c(c3)OCCO4)C(=O)C(=O)N2Cc2ccco2)c(OC)c1", "note": "(stereo not given)", "Potency": "inconclusive [inhibitor, partial curve]"},
      {"smiles": "CCC(NC(=O)C(C)NC)C(=O)N1CCCC1C(=O)NC1CCCc2ccccc21", "note": "(stereo not given)", "Potency": "active: 31.6 µM"},
      {"smiles": "CCCNC1=C(C)C(=O)C2=C(C1=O)C(COC(N)=O)[C@]1(OC)C3NC3CN21", "note": "(stereo not given in full)", "Potency": "active: 35.5 µM"},
      {"smiles": "CC(=O)c1ccc(N2CCN(C(=O)CNS(=O)(=O)c3ccc4c(c3)OCCCO4)CC2)c(F)c1", "Potency": "inconclusive [inhibitor, partial curve]"},
      {"smiles": "COc1ccc(-c2nc(CS(=O)CC(=O)NCc3ccc(F)cc3)c(C)o2)cc1OC", "note": "(stereo not given)", "Potency": "inconclusive [inhibitor, partial curve]"},
      {"smiles": "CC(=O)Nc1nc(-c2ccccc2)cc(-c2ccco2)c1C#N", "Potency": "inconclusive [inhibitor, partial curve]"},
      {"smiles": "CCOC(=O)C1CCCN(CCc2ccccc2)C1", "note": "(stereo not given)", "Potency": "inactive"},
      {"smiles": "C=CCOc1cccc(C2/C(=C(/O)c3ccc(C)cc3)C(=O)C(=O)N2CCN2CCOCC2)c1", "note": "(stereo not given)", "Potency": "inconclusive [inhibitor, single point]"},
      {"smiles": "COc1cccc(C2/C(=C(\\O)c3c(C)nc4c(C)cccn34)C(=O)C(=O)N2CCCN(C)C)c1", "note": "(stereo not given)", "Potency": "inconclusive [inhibitor, partial curve]"},
      {"smiles": "COc1ccccc1OC(=O)Nc1ccc(Cl)cc1", "Potency": "inconclusive [inhibitor, single point]"},
      {"smiles": "Cc1ccc(O)c(/C=N/NC(=O)C2=NNC(c3ccccc3)(c3ccccc3)C2)c1", "Potency": "inconclusive [inhibitor, partial curve]"},
      {"smiles": "Cc1nc(SC2CC(=O)N(c3ccc([N+](=O)[O-])cc3)C2=O)nc2c1CCCC2", "note": "(stereo not given)", "Potency": "inconclusive [inhibitor, partial curve]"},
      {"smiles": "C=CCNC(=O)N1c2ccccc2Sc2ccccc21", "Potency": "inconclusive [inhibitor, single point]"},
      {"smiles": "CC(=O)Nc1ccc(NC(=O)CSc2nnnn2-c2ccc(F)cc2)cc1", "Potency": "inconclusive [inhibitor, partial curve]"},
      {"smiles": "O=C(COC(=O)c1ccc(Br)o1)Nc1ncc([N+](=O)[O-])s1", "Potency": "inconclusive [inhibitor, partial curve]"},
      {"smiles": "O=S(=O)(Nc1ccc(-c2csc(-c3ccccc3)n2)cc1)c1ccc(F)cc1", "Potency": "inactive"},
      {"smiles": "CC(=O)c1cccc(NC2c3ncccc3C(=O)N2Cc2ccco2)c1", "note": "(stereo not given)", "Potency": "inconclusive [inhibitor, full curve]"},
      {"smiles": "Cc1ccc(NC(=O)c2cc(C)nn2-c2ccccc2)cc1", "Potency": "inconclusive [inhibitor, single point]"},
      {"smiles": "CCN(CC)c1ccc(N=Cc2cc(Br)ccc2O)cc1", "Potency": "inconclusive [inhibitor, partial curve]"},
      {"smiles": "Cc1[nH]c(=O)c(C(=O)/C=C/c2ccccc2)c2c1CCCC2", "Potency": "active: 35.5 µM"},
      {"smiles": "CCOc1cccc(/C(O)=C2/C(=O)C(=O)N(Cc3cccnc3)C2c2ccco2)c1", "note": "(stereo not given)", "Potency": "inconclusive [inhibitor, full curve, poor fit]"},
      {"smiles": "Cc1ccc2c(CN3CC(C)CC(C)C3)cc(=O)oc2c1", "note": "(stereo not given)", "Potency": "active: 89.1 µM"},
      {"smiles": "COc1ccccc1NC(=O)N(Cc1ccco1)Cc1cc2cc(C)cc(C)c2[nH]c1=O", "Potency": "inconclusive [inhibitor, single point]"},
      {"smiles": "COc1ccc(S(=O)(=O)Nc2cccc(-c3ccc(N4CCOCC4)nn3)c2)cc1F", "Potency": "inactive"},
      {"smiles": "Cc1ccc(CCNC(=O)CS(=O)Cc2nc(-c3cccs3)oc2C)cc1", "note": "(stereo not given)", "Potency": "active: 8.91 µM"},
      {"smiles": "CCn1c(SCC(=O)c2ccc(Cl)cc2)nnc1-c1ccoc1C", "Potency": "active: 25.1 µM"},
      {"smiles": "CCOC(=O)N1CCC(n2c(SCC(=O)NCc3ccco3)nc3ccsc3c2=O)CC1", "Potency": "inconclusive [inhibitor, partial curve]"},
      {"smiles": "COCCC(=O)N1CCC(Oc2ccc(C(=O)NCc3ncc(C)[nH]3)cc2)CC1", "Potency": "inactive"},
      {"smiles": "CCCCCCn1c(O)c(C=NC2CCN(Cc3ccccc3)CC2)c(=O)[nH]c1=O", "Potency": "inconclusive [inhibitor, partial curve, poor fit]"},
      {"smiles": "O=C1c2ccccc2S(=O)(=O)c2cc(C(=O)N(c3ccccn3)c3ccccn3)ccc21", "Potency": "inactive"},
      {"smiles": "CCCS(=O)(=O)c1ncc(Cl)c(C(=O)N2CCN(c3ccc(OC)cc3)CC2)n1", "Potency": "active: 11.2 µM"},
      {"smiles": "O=C1CC(N2CCN(c3ccccn3)CC2)C(=O)N1c1ccc(Cl)cc1", "note": "(stereo not given)", "Potency": "inconclusive [inhibitor, partial curve]"},
      {"smiles": "CCOC(=O)C(=O)C1=C(N2CCOCC2)/C(=C\\c2ccc(F)cc2)CC1", "Potency": "active: 28.2 µM"},
      {"smiles": "Cn1cc(/C=N/NC(N)=S)c2ccccc21", "Potency": "inactive"},
      {"smiles": "O=S(=O)(Cc1noc(-c2ccc(Cl)cc2)n1)Cc1ccco1", "Potency": "active: 50.1 µM"},
      {"smiles": "Cn1c(CNC(=O)c2ccco2)nnc1SCC(=O)c1ccc(Br)cc1", "Potency": "inconclusive [inhibitor, partial curve]"},
      {"smiles": "O=C(CSc1nnc(COc2ccc(Cl)cc2)o1)Nc1ccccc1", "Potency": "inactive"},
      {"smiles": "C=CCN(C(=O)CNC(=O)c1ccco1)C(C(=O)NC1CCCCC1)c1ccccc1F", "note": "(stereo not given)", "Potency": "inconclusive [inhibitor, partial curve]"},
      {"smiles": "Nc1nc(-c2cc(O)ccc2[N+](=O)[O-])cc(-c2ccccc2)c1[N+](=O)[O-]", "Potency": "inconclusive [inhibitor, partial curve, poor fit]"},
      {"smiles": "CCC(CC)C(=O)Nc1cc(-c2cn3cccnc3n2)ccc1OC", "Potency": "inactive"},
      {"smiles": "CCN1CCN(C(=O)C(=O)c2cn(CC(=O)N3CCCCCC3)c3ccccc23)CC1", "Potency": "inconclusive [inhibitor, full curve]"},
      {"smiles": "Cc1ccc(CNC(=O)C2c3ccccc3C(=O)N(C)C2c2c[nH]c3ccccc23)o1", "note": "(stereo not given)", "Potency": "active: 50.1 µM"},
      {"smiles": "CCOC(=O)c1sc2nc3c(cc2c1N)COC(C(C)C)C3", "note": "(stereo not given)", "Potency": "inactive"},
      {"smiles": "O=C(/C=C/c1ccc(Br)o1)OCc1ccccc1", "Potency": "active: 22.4 µM"},
      {"smiles": "CCOc1ccccc1C1C(C#N)=C(N)Oc2cc(C)n(Cc3ccccn3)c(=O)c21", "note": "(stereo not given)", "Potency": "active: 35.5 µM"},
      {"smiles": "COc1ccc(/C=C/c2nc3ccccc3n2C)cc1", "Potency": "inconclusive [inhibitor, single point]"},
      {"smiles": "CCOc1ccc(N=C(/C(C(=O)C(=O)N2CCOCC2)=C(/O)c2ccccc2)c2ccccc2)cc1", "Potency": "inconclusive [inhibitor, partial curve]"},
      {"smiles": "Cc1ccc(-c2ccc(CCC(=O)O)n2C(C)C)cc1", "Potency": "active: 25.1 µM"},
      {"smiles": "COc1ccccc1N1CCN(Cc2nc(N)nc(Nc3ccccc3)n2)CC1", "Potency": "inconclusive [inhibitor, single point]"},
      {"smiles": "O=C(NCc1ccccc1Cl)C1CCN(S(=O)(=O)c2ccc3c(c2)CCCN3C(=O)C2CCC2)CC1", "Potency": "inactive"},
      {"smiles": "C(=N\\Nc1nncc2ccccc12)/c1ccccc1", "Potency": "inactive"},
      {"smiles": "COC(=O)c1cccc(NC(=O)CSc2nnnn2C)c1", "Potency": "inconclusive [inhibitor, single point]"},
      {"smiles": "CC(=O)C1=C(C)N(Cc2ccccc2)C(=O)N[C@@H]1c1cccc(C(F)(F)F)c1", "Potency": "inconclusive [inhibitor, partial curve]"},
      {"smiles": "CSCc1cc(N2CCCC2)nc(-c2ccccc2)n1", "Potency": "inactive"},
      {"smiles": "COc1cc2c(cc1OC)CN(C(=O)Cc1c(F)cccc1Cl)CC2", "Potency": "inactive"},
      {"smiles": "O=C(O)CC12CC3CC(C1)CC(n1ncc(NCc4ccccc4)c(Cl)c1=O)(C3)C2", "Potency": "inconclusive [inhibitor, partial curve]"},
      {"smiles": "O=C(/C=C/c1ccccc1)Nc1cc(S(=O)(=O)N2CCOCC2)ccc1N1CCOCC1", "Potency": "inconclusive [inhibitor, single point]"},
      {"smiles": "O=C(O)c1ccc(-c2nc(-c3ccc(Cl)c(Cl)c3)cs2)cc1", "Potency": "inconclusive [inhibitor, single point]"},
      {"smiles": "CC(C)N(C(=O)CSc1nc2ccccc2n1Cc1ccccc1)C(C)C", "Potency": "inactive"},
      {"smiles": "N#Cc1c(/N=C/c2ccco2)oc(-c2ccccc2)c1-c1ccccc1", "Potency": "inconclusive [inhibitor, partial curve]"},
      {"smiles": "Cc1cc(C(=O)NC2CCCN(Cc3ccccc3F)C2)no1", "note": "(stereo not given)", "Potency": "inconclusive [inhibitor, partial curve]"},
      {"smiles": "COCCNC(=O)C(c1ccc(C)o1)N(Cc1cccs1)C(=O)c1snc(C(N)=O)c1N", "note": "(stereo not given)", "Potency": "inconclusive [inhibitor, partial curve]"},
      {"smiles": "COC(=O)c1ccc(N=NN2CCCCC2)cc1", "Potency": "inconclusive [inhibitor, partial curve, poor fit]"},
      {"smiles": "O=C1NN(c2ccccc2)C(=O)/C1=C/c1ccc(-c2ccc(C(=O)O)cc2)o1", "Potency": "inactive"},
      {"smiles": "NC(=O)Cn1nnc(-c2ccc(NC(=O)c3ccc(F)cc3)cc2)n1", "Potency": "inactive"}
    ]}
  ]
}
